# Results published in PubChem BioAssay AID588549 (Broad Institute, 2011).
# The whole screen tested about 360,000 compounds, of which about 780 (0.22%) were called active. Inconclusive results, whose numbers are uncertain, are shown with a selection of clear calls. Cut-off read from the data, not from the text of the source: active = inhibition above about 8.5% (passing the limit was not always enough); inconclusive = no clear call, values can overlap the other calls.
# Tested on: Mycobacterium tuberculosis FadD28 fatty-acid-AMP ligase
# Assay: inhibitors of FadD28 bisubstrate probe binding, primary screen, biochemical, fluorescence polarization, single point (AID 588549)
# Conditions: at 12.5 µM, stronger effect = higher value
row,SMILES,inhibition
1,CC(C)Sc1nsc2nc(=O)c(/C=C3\C=Nc4ccccc43)c(N)n12,active: 19.3%
2,O=C(COC(=O)c1cccc(S(=O)(=O)N2CCCCCC2)c1)Nc1ccccc1,inconclusive: 12.5%
3,Cc1ccc(S(=O)(=O)N(C)CC(=O)OCC(=O)NC(=O)Nc2ccc3c(c2)OCCO3)cc1,inconclusive: 5.24%
4,CCc1cc(=O)oc2cc(C)cc(OC(C)C(=O)NCc3cccnc3)c12 (stereo not drawn),inactive: -0.497%
5,C/C(=N\N=C(/N)SC1CC(=O)N(c2ccc(Br)cc2)C1=O)c1cccs1 (stereo not drawn),active: 10.5%
6,Cc1c(Br)c(=O)oc2c(Br)c(O)ccc12,inactive: -0.179%
7,C#CCn1c(S(=O)(=O)Cc2ccc(OC)cc2)nc(-c2ccccc2)c1-c1ccccc1,inconclusive: 4.83%
8,Cc1nn(C(=O)c2ccco2)c(C)c1Br,inconclusive: 5.65%
9,CCC(C)/C=C(C)/C=C/C1=CC2=C(Cl)C(=O)C(C)(OC(C)=O)C(=O)C2=CO1 (stereo not drawn),inconclusive: 8.1%
10,Nc1nc(-c2cccs2)c(-c2cccs2)s1,inconclusive: 9.02%
11,COc1ccc(C(=O)NCCc2c[nH]c3ccccc23)cc1S(=O)(=O)N1CCCCC1C (stereo not drawn),active: 61.6%
12,COc1ccc(/C=C2\Oc3cc(OCC(=O)N4CCC[C@H]4C(=O)O)ccc3C2=O)c(OC)c1,inactive: -4.17%
13,NCCc1cc(O)c(O)cc1O,inconclusive: 8.16%
14,CC1(C)CC(=O)C=C(c2ccc(COC(=O)c3ccccc3)cc2)C1=O,inactive: -1.38%
15,COc1ccc(/C=C2\C(=O)N(c3c(Cl)cc(Cl)cc3Cl)N=C2NC(=O)c2cccc([N+](=O)[O-])c2)cc1,active: 8.39%
16,Cc1ccccc1NC(=O)CSc1nnc(-c2ccco2)c(-c2ccco2)n1,inconclusive: 6.44%
17,O=C(Nc1cccc2ccccc12)N1CC=C(c2ccccc2)CC1,inactive: -0.405%
18,O=C(CN1C(=O)NC2(CCOc3ccccc32)C1=O)c1ccc(Br)cc1 (stereo not drawn),active: 21.4%
19,CCCCOC(=O)CNc1n[nH]c(=S)[nH]c1=O,inactive: -0.982%
20,O=C(Oc1ccc(Cl)cc1N1C(=O)CCC1=O)c1ccco1,inactive: -1.56%
21,O=C(O)c1cc(N/N=C/c2ccc(N3CCOCC3)s2)ccc1Cl,active: 45.2%
22,O=C(Cc1coc2cc(O)ccc12)NNC(=O)c1cccs1,inactive: -0.389%

row,SMILES,inhibition
1,CCOc1cc(Br)cc(C(c2c(C(=O)O)[nH]c3ccccc23)c2c(C(=O)O)[nH]c3ccccc23)c1O,active: 32.5%
2,COc1ccc(/C=C/c2nnc(NC(=O)C(C)(C)C)s2)cc1,inactive: -1.35%
3,O=C(CSc1nnc(CNC(=O)c2c(F)cccc2Cl)o1)Nc1ccc2c(c1)OCO2,inactive: -0.5%
4,COc1ccc(/C=C(/C(=O)c2cccs2)N2C=CC=CC2=C(C#N)C#N)cc1,inactive: -3%
5,N#C/C(=C/c1ccc(N2CCOCC2)o1)c1nc2ccccc2[nH]1,inconclusive: 8.55%
6,CCOc1ccc(-c2nnc3n2N=C(c2ccc(OC)cc2)CS3)cc1,inactive: 0.279%
7,O=C(O)CC(C(=O)O)N1C(=O)/C(=C/C=C/c2ccco2)SC1=S (stereo not drawn),inconclusive: 9.37%
8,COc1ccc(C(=O)/C=C(\C)NCc2ccc3c(c2)OCO3)cc1,inactive: -3.5%
9,Oc1ccccc1/C=N/n1c2ccccc2c2ccccc21,inconclusive: 17.1%
10,COc1ccc(C(=O)Nc2nnc(S(=O)(=O)N3CCCCCC3)s2)cc1OC,inactive: -0.467%
11,COc1ccc(N/C=C(\C2OC(=O)c3ccccc32)[N+](=O)[O-])cc1 (stereo not drawn),inconclusive: 5.4%
12,c1ccc(Nc2nc(-c3ccccn3)cs2)cc1,inactive: 1.2%
13,Cc1coc2c1C(=O)C(=O)c1c-2ccc2c1CCCC2(C)C,inconclusive: 8.54%
14,COc1ccc2cc(C3=CC(=O)CCC3)ccc2c1,inactive: -4.44%
15,CCOC(=O)C1=C(C)NC2(O)c3ccccc3C(=O)C12O (stereo not drawn),inactive: 0.219%
16,O=C1NN(c2ccccc2)C(=O)/C1=C/c1ccc(-c2ccc(C(=O)O)cc2)o1,inconclusive: 11.7%
17,O=C(Cc1ccc(Cl)cc1)Nc1ccc(N2CCN(C(=O)c3ccco3)CC2)c(Cl)c1,inconclusive: 5.83%
18,O=C(c1[nH]c(C(F)(F)F)nc1-c1ccccc1)N1CCN(c2ccccn2)CC1,inconclusive: 4.04%
19,COc1ccc(-c2nc3nc(C)cc(C)n3n2)cc1,inactive: -2.68%
20,O=C(O)c1cccc(NN=C2c3ccccc3-c3ccccc32)c1,active: 13.3%
21,N#CC1=C(N)N(c2ccccc2)C(c2ccco2)C1(C#N)C#N (stereo not drawn),active: 14.7%
22,CCCN1C(=O)c2ccccc2NC1c1ccc(Cl)cc1 (stereo not drawn),inconclusive: 4.78%

row,SMILES,inhibition
1,Cc1ccc(S(=O)(=O)NC(=O)Nc2ccc(N(C)C)cc2)cc1,inactive: 0.886%
2,CCOc1cc(/C=C2\SC(=O)N(CC(=O)Nc3ccccc3F)C2=O)cc([N+](=O)[O-])c1O,inconclusive: 6.61%
3,CC1Oc2cc3c(-c4c(O)cc(O)c5c(O)c6c(cc45)OC(C)C(C)C6=O)c(O)cc(O)c3c(O)c2C(=O)C1C (stereo not drawn),active: 31.3%
4,O=C(NC1CCCC1)c1ccc2nc(-c3ccco3)c(-c3ccco3)nc2c1,inconclusive: 6.61%
5,CC(C)=C1C(=O)NN(c2ccc(F)c(Cl)c2)C1=O,inconclusive: 6.78%
6,O=C(O)c1cc(NN=Nc2ccc(Br)cc2)cc([N+](=O)[O-])c1,inconclusive: 4.6%
7,COc1ccc(C2(CNC(=O)c3ccc(OC)c([N+](=O)[O-])c3)CCCCC2)cc1OC,inconclusive: 3.73%
8,CCCc1cc(=O)[nH]c(SCc2ccc(C#N)cc2)n1,inconclusive: 5.06%
9,O=[N+]([O-])c1cc(C(F)(F)F)ccc1NCCc1c[nH]c2ccc(O)cc12,active: 11.7%
10,C=CCn1c(C)csc1=Nc1ccc(C(C)=O)cc1,inconclusive: 8.2%
11,Cc1cc(/C=N/Nc2ccc([N+](=O)[O-])cn2)c(C)n1-c1ccc(C(=O)O)cc1,inconclusive: 8.35%
12,N=C(N)c1ccc(Cl)cc1,inactive: -0.486%
13,O=C(CSc1nc2ccccc2[nH]1)NC1CCCc2ccccc21 (stereo not drawn),inconclusive: 3.78%
14,CC(C)n1c(O)c(N=Nc2ccc(Cl)c(C(=O)O)c2)c2ccccc21,active: 11.3%
15,COc1ccc2c(C)cc(SCC(=O)N(C)C3CCS(=O)(=O)C3)nc2c1 (stereo not drawn),inconclusive: 1.72%
16,O=C(Nc1cccc(F)c1)NC1CCCCCCC1,inconclusive: 7.55%
17,Cn1c(N/N=C/c2c[nH]c3ccccc23)nc2ccccc21,inconclusive: 6.88%
18,Cc1ccc(S(=O)(=O)/N=C2/NC(=O)/C(=C/c3cc([N+](=O)[O-])ccc3O)S2)cc1,active: 33.2%
19,O=C1C(=Cc2ccc(Br)o2)C(=O)c2ccccc21,active: 40.8%
20,COc1cc(OC)c(-c2c3cc(O)c(=O)cc-3oc3cc(O)c(O)cc23)cc1OC,active: 39%
21,CNc1nnc(-c2ccncc2)s1,inactive: 0.239%
22,CSc1nc(N)c2c3c(sc2n1)CN(C)CC3,inactive: -2.1%

row,SMILES,inhibition
1,COC(=O)C1=C(C)NC2=C(C(=O)c3ccccc32)C1c1ccc(-c2ccc(C(=O)O)cc2)o1 (stereo not drawn),inconclusive: 6.65%
2,N#C/C(=C\c1ccc(O)c(O)c1)C(=O)NCCc1ccccc1,active: 11.1%
3,O=C(COC(=O)c1ccc(NS(=O)(=O)c2cccs2)cc1O)Nc1nc2ccccc2s1,inconclusive: 5.95%
4,CC1CC(=O)c2c(cc3c(-c4c(O)cc(O)c5c(O)c6c(cc45)OC(C)CC6=O)c(O)cc(O)c3c2O)O1 (stereo not drawn),active: 13.2%
5,O=C(O)c1cc(O)c2c(c1)[C@@H]([C@H]1c3cc(C(=O)O)cc(O)c3C(=O)c3c(O[C@@H]4O[C@H](CO)[C@@H](O)[C@H](O)[C@H]4O)cccc31)c1cccc(OC3O[C@H](CO)[C@@H](O)[C@H](O)[C@H]3O)c1C2=O (stereo partly drawn),active: 13.7%
6,CCc1nnc(NC(=O)CSc2ncnc3c2oc2ccccc23)s1,inconclusive: 5.53%
7,COc1ccc(CN2C(=O)NC(=O)/C(=C\c3ccco3)C2=O)cc1,inconclusive: 7.28%
8,COc1ccc(-c2[nH]c(-c3ccc(C(=O)O)cc3)nc2-c2ccccc2)cc1,inconclusive: 5.03%
9,O=C(O)Cc1c[nH]c2cccc(O)c12,inconclusive: 7.19%
10,CN(C)c1ccc2nc3ccc(=O)cc-3sc2c1,inconclusive: 6.33%
11,COc1ccc(C2CC(=O)C3=C(C2)Nc2ncnn2C3c2ccccc2)cc1 (stereo not drawn),inactive: -9.29%
12,CC1=Nc2ccccc2/C1=C\c1nc(-c2ccc(C(F)(F)F)cc2)oc1O,inconclusive: 7.02%
13,COc1cc([N+](=O)[O-])ccc1NC(=S)NNC(=O)c1ccc2c(c1)OCO2,inconclusive: 5.01%
14,CCCCOC(=O)Nc1nc2ccc([N+](=O)[O-])cc2s1,inactive: -4.07%
15,CCCC1SCC(C)(C)NC1=O (stereo not drawn),inconclusive: 23.2%
16,Cc1cccc(C(=O)NNS(=O)(=O)c2ccc(F)cc2)c1O,inconclusive: 5%
17,Nc1nc(N)c2c(ccc3nccc32)[nH]1,inactive: -1.51%
18,O=c1c2c3c(sc2nc2n1CCC2)CCCC3,inconclusive: 5.48%
19,CCOC(=O)N1CCN(C2CC(=O)N(c3ccc(F)cc3)C2=O)CC1 (stereo not drawn),inconclusive: 7.26%
20,O=C(O)c1ccc2c(c1)C(=O)/C(=C/c1ccccc1)C2=O,inconclusive: 6.2%
21,Nc1ccc(NC(=O)NC2CCCCC2)cc1[N+](=O)[O-],inconclusive: 4.84%
22,Cc1ccn2c(Nc3ccccc3C)c(-c3ccccn3)nc2c1,inconclusive: 3.73%
